Measured values as given in publication PMC6919601, “Identification of Plasmodium dipeptidyl aminopeptidase allosteric inhibitors by high throughput screening” (PLoS ONE, 2019).
The whole screen tested about 110,000 compounds, of which about 230 (0.21%) showed an effect of 50% or more. The list shows a part of the results.

Target: DPAP1 (Plasmodium falciparum, UniProt Q8IIJ9)
Experiment: primary screen, percent inhibition; read by cleavage of a fluorogenic dipeptide substrate; higher = more effect of the substance
Design: species or system P. falciparum D10 trophozoite lysates; single well
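Also: 30 min substrate incubation versus DMSO and 10 µM JCP410 controls.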

Sequence of DPAP1 (Q8IIJ9 whole entry, looked up): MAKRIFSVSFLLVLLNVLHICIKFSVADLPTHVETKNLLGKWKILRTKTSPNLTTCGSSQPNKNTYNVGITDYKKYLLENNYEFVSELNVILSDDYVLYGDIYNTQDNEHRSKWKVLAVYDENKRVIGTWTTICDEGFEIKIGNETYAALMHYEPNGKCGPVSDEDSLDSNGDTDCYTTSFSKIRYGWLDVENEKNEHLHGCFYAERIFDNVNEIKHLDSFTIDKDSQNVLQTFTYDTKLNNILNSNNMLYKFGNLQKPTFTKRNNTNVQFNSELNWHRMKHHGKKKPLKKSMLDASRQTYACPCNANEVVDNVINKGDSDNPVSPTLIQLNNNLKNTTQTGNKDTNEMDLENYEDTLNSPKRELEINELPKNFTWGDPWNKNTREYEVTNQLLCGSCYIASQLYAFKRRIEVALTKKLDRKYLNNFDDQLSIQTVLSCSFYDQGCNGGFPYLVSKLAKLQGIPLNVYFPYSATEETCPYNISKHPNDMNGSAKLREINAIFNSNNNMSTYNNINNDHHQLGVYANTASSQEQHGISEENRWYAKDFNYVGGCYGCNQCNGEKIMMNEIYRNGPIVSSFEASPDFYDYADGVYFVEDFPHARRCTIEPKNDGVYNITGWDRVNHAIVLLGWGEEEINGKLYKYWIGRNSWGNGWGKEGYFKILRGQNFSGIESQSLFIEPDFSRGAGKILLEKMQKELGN

| Compound | % Inhibition @ 10 uM |
| --- | --- |
| COc1ccc(N/C=C(/C#N)c2nc(-c3cccs3)cs2)cc1 | -1.22% |
| CC1(C)CC(=O)C2=C(C1)OC(N)=C(C#N)C2c1cc(Cn2cnc3ccccc32)cs1 (centres unmarked) | 7.05% |
| Cc1ccc(NC(=O)c2c(C)nc3ccccn23)cc1C | 1.14% |
| Cc1nc2nc(NC(=O)C(C)Oc3ccccc3)nn2c(O)c1Cc1ccccc1 (centres unmarked) | -3.31% |
| CCCNC(=O)c1cc(-c2ccc(C)s2)nc2ccccc12 | -5.88% |
| CCc1ccc(S(=O)(=O)c2nnn(-c3ccc(F)c(Cl)c3)c2N)cc1 | 4.85% |
| O=S(=O)(c1cccc2nonc12)N1CCN(C(c2ccccc2)c2ccccc2)CC1 | 1.94% |
| Cc1ccc(C(C(=O)NC2CCCC2)N2CC(C)CC(C)C2)cc1 (centres unmarked) | 7.99% |
| [O-][n+]1cccc2c(Br)cc(Br)c(O)c21 | 4.41% |
| O=C1c2nccnc2C(=O)N1c1nccs1 | -1.08% |
| Oc1ccc(Cc2nc3ccccc3[nH]2)cc1 | 0.565% |
| C=CCOc1cccc(/C=C2\C(=O)N(Cc3ccc(C)cc3)C(C)=C2C(=O)OC)c1 | 0.27% |
| COc1cccc(CN(C(=O)c2oc3ccc(Cl)cc3c2C)C2CCS(=O)(=O)C2)c1 (centres unmarked) | 2.02% |
| CC1CCC(C(C)C)C(OCC(O)CN2CCc3ccccc3C2)C1 (centres unmarked) | 2.78% |
| CC(C)c1ccc(C2=CC(c3c(F)cccc3Cl)n3ncnc3N2)cc1 (centres unmarked) | 0.219% |
| COCCNC(=O)CN1CCN(Cc2ccc(C)cc2)C1=O | -2.7% |
| Nc1cccc(C(=O)Nc2cccc(C(=O)NC3CCCCC3)c2)c1 | 0.245% |
| O=C(Nc1ccc(NC(=O)c2ccccc2Cl)cc1)c1ccc2c(c1)OCCO2 | -8.92% |
| N#CCCn1nc(-c2ccccc2)cc1O | -1.77% |
| CC(C)(C)c1ccc(OCC(O)CN2C(=O)c3ccccc3C2=O)cc1 (centres unmarked) | 0.131% |
| FC(F)(F)c1cccc(CN2CCN(c3ccccc3Cl)CC2)c1 | 2.47% |
| CCOc1ccc(-n2cccc2/C=C2/C(=O)NC(=O)N(Cc3ccco3)C2=O)cc1 | -1.54% |
| N#CCNC(=O)[C@H](CC1CCCCC1)NC(=O)NC1CCCCC1 | 1.35% |
| O=C(c1ccccc1Br)N1CCN(c2ccccc2)CC1 | -2.12% |
| CCOC(=O)c1cc(-c2ccc(N)cc2)nc2ccc(Br)cc12 | 5.35% |

| Compound | % Inhibition @ 10 uM |
| --- | --- |
| Cc1noc(C)c1C(c1ccccc1)S(=O)(=O)c1ccccc1 (centres unmarked) | 1.67% |
| COc1ccc2c(c1)C(=O)C(C1(O)C(=O)N(C)c3ccccc31)CC2 (centres unmarked) | 7.85% |
| COc1ccc(/N=C2/S/C(=C\c3cc(Br)ccc3O)C(=O)N2C)cc1 | 1.05% |
| Cc1ccc(C(=O)C2=C(O)C(=O)N(CC3CCCO3)C2c2ccc(C(C)(C)C)cc2)o1 (centres unmarked) | 4.31% |
| CCOc1ccc2n[se]nc2c1 | 3.47% |
| CC(C)(C)OC(=O)N1CCC(c2c(C(=O)N3CCc4ccccc4C3)cnn2-c2ccccc2)CC1 | -0.887% |
| O=C1C2C3CCC(C3)C2C(=O)N1c1ccc(F)cc1 (centres unmarked) | -2.34% |
| CCN(CC)c1ccc(NC(=O)Nc2ccc(Cl)cc2)cc1 | -0.0369% |
| CCOc1ccc2nc(Nc3nc4ccccc4nc3Cl)sc2c1 | -2.05% |
| COc1ccc(Cl)cc1NC(=O)COc1ccc(S(=O)(=O)NC2CCCC2)cc1 | 2.5% |
| COc1ccc(-c2cc(C(=O)NCc3cccnc3)c3ccccc3n2)cc1 | 1.27% |
| COc1ccc(-c2cc3c4cccn4ccn3c2)cc1 | -0.744% |
| Cc1cccc(NC(=O)C2CC(=O)N(c3ccc(Cl)cc3)C2)c1 (centres unmarked) | -0.999% |
| COc1ccc(Br)cc1CNC(=O)C1CCCN(S(=O)(=O)N2CCOCC2)C1 (centres unmarked) | 4.89% |
| O=C(O)c1cccc(S(=O)(=O)N2Cc3ccccc3C2)c1 | 3.16% |
| CCOC(=O)CNC(=O)NCc1ccccc1 | -4.35% |
| Cc1ccccc1N1C(=O)C(=Cc2ccc3c(c2)OCO3)C(=O)N(c2ccccc2C)C1=S | 15.1% |
| CC(=O)NS(=O)(=O)c1ccc(NC(=O)c2ccncc2)cc1 | 2.03% |
| CC(C)NS(=O)(=O)c1ccc(OCC(=O)NCc2cccnc2)cc1 | -2.9% |
| COCCNC(=O)c1cc2nc(-c3ccco3)cc(C(F)(F)Cl)n2n1 | -3.77% |
| CC1CCN(c2ccc3nnc(CCC(=O)O)n3n2)CC1 | 4.01% |
| COc1ccc(N(CC(=O)Nc2ccc(F)cc2)S(C)(=O)=O)cc1 | -1.95% |
| Cc1ccc(C)c(S(=O)(=O)NCc2ccc(C(=O)Nc3cccnc3)cc2)c1 | -5.56% |
| CCOC(=O)c1c(NC(=O)c2cc(-c3ccco3)on2)sc2c1CCCC2 | 1.82% |
| c1ccc(CNc2ccc3c[nH]nc3c2)cc1 | 1.29% |
